Measurements from PubChem BioAssay AID1671193 (National Center for Advancing Translational Sciences (NCATS), 2021).
Screen size: about 150,000 compounds; about 180 (0.12%) were called active. Inconclusive results, whose numbers are uncertain, are shown with a selection of clear calls. Calls follow the shape of the dose curve; as a rule, active = well fitted cell-killing curve with a large enough effect; inconclusive = small, poorly fitted or top-dose-only effect, or effect the other way; inactive = flat fitted curve, though single readings scatter. Potencies of inconclusive entries are doubtful fits and often do not repeat.

Assay: GF-AFC viability counterscreen for inhibitors of alpha-synuclein gene (SNCA) expression; also: nearly all actives have a fitted effect of over 30% in size;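 as to activity change, negative = cytotoxicity: 0% = DMSO-treated cells and -100% = medium-only wells without cells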
Conditions: HEK-293-SNCA-luc viability, GF-AFC fluorescence, 24 h; activity change, negative = cytotoxicity: at 57.1 µM (top of the series) unless noted
Summary of the method: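 Cytotoxicity counterscreen: after 24 h compound treatment of genome-edited SNCA-luciferase HEK-293 cells, live-cell protease substrate GF-AFC read by fluorescence after 30 min; activity scaled between DMSO (0%) and medium-only (-100%), curves Hill-fitted.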
Potency is read from the fitted curve at half-maximal effect; tags tell the direction and shape of the fitted curve.

Row | Structure (SMILES) | Potency | activity change, negative = cytotoxicity
1 | CC(Oc1ccccc1F)C(=O)NCC1(N2CCOCC2)CCCCC1 (centres undefined) | inconclusive: 1.78 µM [rising, partial curve, poor fit] | –
2 | CCCOC(=O)c1cccc(Nc2nc(C(=O)OCC)nc3ccccc23)c1 | inconclusive: 22.4 µM [cytotoxic, partial curve, poor fit] | –
3 | COc1cccc(-c2nc3cnccn3c2NCCC(=O)N2CCN(C)CC2)c1 | inconclusive: 35.5 µM [rising, single point] | –
4 | CC(C)Cc1noc(-c2ccc(N3CCC(O)CC3)nc2)n1 | – | inactive: -1.3%
5 | O=C(Cc1ccc(Br)cc1)N1CCCN(c2cc(-c3ccc(F)cc3)[nH]n2)CC1 | inconclusive: 25.1 µM [cytotoxic, single point] | –
6 | COc1ccc(NC(=O)N2CCc3c(nc4cc(-c5ccccc5)[nH]n4c3=O)C2)c(C)c1 | – | inactive: 8.51%
7 | Cc1cc(Nc2ccc(NC(=O)c3ccc(Nc4ccnc5ccccc45)cc3)cc2)nc(N)n1 | inconclusive: 10.6 µM [cytotoxic, partial curve, poor fit] | –
8 | CNC1CCN(c2ccc(-c3nc(CCCc4ccccc4)no3)cn2)CC1 | inconclusive: 25.1 µM [rising, single point] | –
9 | O=S(=O)(c1cccnc1)N1CC(c2noc(C3CCCN3CC3CC3)n2)C1 (centres undefined) | inconclusive: 0.708 µM [cytotoxic, full curve, poor fit] | –
10 | CCN1CC2(CCN(C(=O)c3cnc4c(O)cccn4c3=O)CC2)OC1=O | inconclusive: 28.2 µM [rising, partial curve, poor fit] | –
11 | CC(C)C[C@@H]1N[C@H](C(=O)N2CCN(c3ncccn3)CC2)Cc2c[nH]c3cccc1c23 | – | inactive: -13% [at 87.6 µM]
12 | COc1ccc(-c2cc(C(F)(F)F)nc(SCC(=O)Nc3ccc(O)cc3)n2)cc1OC | inconclusive: 2.82 µM [cytotoxic, full curve] | –
13 | Cc1cnc(-c2cccnc2)n1C1CCCN(CC2CCCCC2)C1 (centres undefined) | inconclusive: 39.8 µM [cytotoxic, single point] | –
14 | COc1ccc(-c2cc(N3CCCC(NC(=O)c4cc(Cl)ccc4OC)C3)n[nH]2)cc1 (centres undefined) | inconclusive: 20 µM [cytotoxic, single point] | –
15 | O=C([C@H]1CCCN1C(=O)c1ccc(C(F)(F)F)cc1)N1CCCC(c2nc3ccncc3[nH]2)C1 (some centres undefined) | – | inactive: -4.97%
16 | CCS(=O)(=O)Nc1ccc2[nH]c(O)c(C(=Nc3ccc(CN4CCCCC4)cc3)c3ccccc3)c2c1 | inconclusive: 10.8 µM [cytotoxic, partial curve, poor fit] | –
17 | C[C@H](NC(=O)[C@@H](O)c1cc(F)cc(F)c1)C(=O)N[C@@H]1C(=O)N(C)c2ccccc2-c2ccccc21 | inconclusive: 21.5 µM [cytotoxic, partial curve, poor fit] | –
18 | O=C(CCNc1c(-c2ccc(F)cc2)nc2cnccn12)NC1CCCC1 | inconclusive: 25.1 µM [rising, single point] | –
19 | O=C(CCNc1c(-c2ccccc2)nc2cnccn12)N1CCC(N2CCCCC2)CC1 | inconclusive: 25.1 µM [rising, single point] | –
20 | COc1ccc(CCc2nc3nccc(-c4cc(OC)c(OC)c(OC)c4)n3n2)cc1 | – | inactive: -17.7%
21 | Cc1nc2ccc(C(=O)NCc3cccnc3Oc3ccccc3C)cc2[nH]1 | – | inactive: -9.2%
22 | CNCc1ccccc1-c1ccccc1 | – | inactive: 0.799% [at 87.6 µM]

Row | Structure (SMILES) | Potency | activity change, negative = cytotoxicity
23 | COc1ccc(C(=O)NCC2(COc3ccccc3)C[C@@H](O)[C@@H](O)C2)cc1 (some centres undefined) | inconclusive: 28.2 µM [cytotoxic, single point] | –
24 | COc1ccccc1N(CC(=O)Nc1cc(C)cc(C)c1)S(C)(=O)=O | inconclusive: 8.91 µM [rising, partial curve, poor fit] | –
25 | O=C(Cn1cccc1-c1nc(-c2ccc3c(c2)OCO3)no1)Nc1cccc(Cl)c1 | – | inactive: 6.3%
26 | O=C(Cn1c(SCC(=O)Nc2ccc(F)cc2)nc2ccccc21)NCc1ccc(Cl)cc1 | inconclusive: 39.8 µM [cytotoxic, single point] | –
27 | COC(=O)NC1CCN(c2nc3ncccc3o2)C1 (centres undefined) | – | inactive: -3.91% [at 87.6 µM]
28 | COc1ccc(NC(=O)CSc2ncc3c(n2)-c2ccccc2N(C)S3(=O)=O)cc1Cl | inconclusive: 7.94 µM [cytotoxic, partial curve] | –
29 | CN(Cc1ccccc1)Cc1nc2c(n1Cc1ccccc1)C(=O)N(Cc1cccc(Cl)c1)CCN2 | inconclusive: 25.1 µM [cytotoxic, partial curve, poor fit] | –
30 | Cc1cn2nc(C(=O)N3CCCC3)cc2c(N(C)Cc2ccccc2)n1 | inconclusive: 39.8 µM [cytotoxic, single point] | –
31 | CCN(C(=O)c1cn(C)c(=O)c2ccccc12)c1cccc(C)c1 | inconclusive: 15.8 µM [rising, partial curve] | –
32 | O=C(c1cccnc1)N1CCC(c2cc(-c3ccc(F)cc3)n[nH]2)CC1 | inconclusive: 7.08 µM [cytotoxic, full curve, poor fit] | –
33 | CC(C)Cn1c(=O)c(C(=O)N2CCN([S+](=O)([O-])c3cccs3)CC2)nc2cccnc21 | – | inactive: -0.0489%
34 | CCC(C)NC(=O)CSCc1nc(-c2ccc(C)cc2)oc1C (centres undefined) | inconclusive: 39.8 µM [cytotoxic, single point] | –
35 | O=C(NCC1CC1)c1cccc(OC2CN(Cc3ccc(F)cc3Cl)C2)c1 | inconclusive: 10 µM [cytotoxic, partial curve, poor fit] | –
36 | CCCCN1C(=O)c2ccccc2C(C(=O)NCCc2ccc(OC)cc2)C12CCCCC2 (centres undefined) | – | inactive: -27.9%
37 | CN(C)C[C@@H]1CN(Cc2ccccn2)C[C@H]1NC(=O)c1ccc(Cl)s1 | – | inactive: 0.873%
38 | c1ccc2oc(CN3Cc4[nH]cnc4C[C@H]3c3nc(-c4ccc5c(c4)OCO5)no3)cc2c1 | – | inactive: -14.3%
39 | O=C(NCc1ccccc1)N1CC(n2cc(C(=O)N3CCOCC3)nn2)C1 | inconclusive: 35.5 µM [cytotoxic, single point] | –
40 | Nc1ccc2ncnc(N3CCCCC3)c2c1 | – | inactive: -11.5%
41 | CC(=O)N1CCc2cc(S(=O)(=O)NC(Cc3ccccc3)C(=O)Nc3ccc(C)cc3C)ccc21 (centres undefined) | inconclusive: 14.1 µM [cytotoxic, partial curve, poor fit] | –
42 | COc1cccc(-c2nc(SCC(=O)NCC3CCCO3)c(-c3ccc(Cl)cc3)[nH]2)c1 (centres undefined) | inconclusive: 22.4 µM [cytotoxic, partial curve, poor fit] | –
43 | c1cnc2c(c1)ccc1cccnc12 | inconclusive: 31.6 µM [cytotoxic, single point] | –
44 | O=C(Nc1ccc2c(c1)OCCO2)N1CCC2(CC1)CC(Cc1ccccc1)CCO2 (centres undefined) | – | inactive: 0.11%

Row | Structure (SMILES) | Potency | activity change, negative = cytotoxicity
45 | COc1ccc(CC(=O)NCc2ccc3c(c2)CCN3C(C)=O)cc1 | – | inactive: 7.12%
46 | COc1ccc(-c2nc(SCC(=O)Nc3ccc4c(c3)OCCO4)c(-c3ccc(F)cc3)[nH]2)cc1OC | inconclusive: 25.1 µM [cytotoxic, partial curve, poor fit] | –
47 | COc1cccc(CNC(=O)c2cc(-c3ccsc3)nc3c2cnn3C)c1 | – | inactive: -22.9% [at 87.6 µM]
48 | CC(=O)c1cccc(NC(=O)C2CCCN(C(=O)c3cnn(-c4ccccc4)c3-n3cccc3)C2)c1 (centres undefined) | inconclusive: 35.5 µM [cytotoxic, single point] | –
49 | CCOc1ccc(C(=O)Nc2cccc(NC(=O)c3ccc(C(C)(C)C)cc3)c2)cc1Br | inconclusive: 39.8 µM [cytotoxic, single point] | –
50 | CCC(CC)C(=O)Nc1ccc2nc(SCC(=O)N3CCc4ccccc43)sc2c1 | inconclusive: 0.891 µM [rising, full curve, poor fit] | –
51 | CC(C)(C)C(=O)Cn1c(=O)n(-c2ccccc2)c(=O)c2c3c(sc21)CCC3 | inconclusive: 7.08 µM [cytotoxic, full curve, poor fit] | –
52 | O=C(O)Cc1cccc(-c2cc(CCCCCCc3ccc(O[C@H]4O[C@H](CO)[C@@H](O)[C@H](O)[C@@H]4O)c(-c4cccc(CC(=O)O)c4)c3)ccc2O[C@H]2O[C@H](CO)[C@@H](O)[C@H](O)[C@@H]2O)c1 | inconclusive: 9.47e-05 µM [rising, full curve, poor fit] | –
53 | O=C(c1ccccc1)N1CCN(C(=O)c2nnn3c2COC(c2ccccc2)C3)CC1 (centres undefined) | – | inactive: -1.76%
54 | O=c1c(-c2ccc(Cl)cc2)nc2cnc(Nc3ccccc3)nc2n1C[C@H]1CCCO1 | inconclusive: 14.1 µM [rising, partial curve] | –
55 | CCn1cc(S(=O)(=O)N2CCC[C@H](n3c(=O)n(CC4CC4)c4cccnc43)C2)cn1 | – | inactive: -5.45%
56 | CNC(=O)CCn1ncc2cc(OCc3ccccc3-c3cccnc3OC)ccc21 | – | inactive: -6.8% [at 87.6 µM]
57 | O=C(NCc1ccncc1)c1cn(C2CNC2)nn1 | inconclusive: 2.51 µM [rising, full curve, poor fit] | –
58 | O=C(c1cccc(F)c1)N1CCCC(c2nc(C3CCOCC3)no2)C1 (centres undefined) | inconclusive: 6.31 µM [rising, single point] | –
59 | COCC1CN(Cc2ccc(C(C)C)cc2)CC12CCNCC2 (centres undefined) | – | inactive: -14%
60 | COc1ccc(C(=O)N2CCC3(Cc4ccccc4NC3=O)C2)cc1 (centres undefined) | inconclusive: 14.1 µM [cytotoxic, full curve, poor fit] | –
61 | CN(C)CCNC(=O)c1nc2nc(-c3ccccc3)c(-c3ccc(Cl)cc3)cc2n1C | inconclusive: 56.2 µM [cytotoxic, single point] | –
62 | COCCn1ncc(N2CCC(NC(=O)c3ccccc3OC)CC2)cc1=O | inconclusive: 3.98 µM [cytotoxic, full curve] | –
63 | CCNC(=O)N[C@@H]1C=C[C@@H](c2c(C)nn(-c3ccc(C(F)(F)F)cc3)c2C)C1 | inconclusive: 28.2 µM [cytotoxic, single point] | –
64 | Cc1noc(C)c1-c1cc(-c2ccccc2F)cn2cncc12 | – | inactive: 1.06% [at 87.6 µM]
